# From patent US20060039856A1, “Magnetic resonance with stimulation” (McLean Hospital Corporation, priority 2001, published 2006)
# Test system: right and left V1 (primary visual cortex) BOLD signal
# Assay: BOLD fMRI of visual cortex during red and blue photic stimulation after oral drug or placebo
# Settings: 1x4 ROI in right and left V1, mean across all trials, 2.5 mg oral
smiles,measurement,setting,value
"C[C@H](N)Cc1ccccc1.C[C@H](N)Cc1ccccc1.O=S(=O)(O)O [d-amphetamine, d-amphetamine sulfate]",mean BOLD signal change,blue light (470 nm) 0.12 lux,2.04%
same,mean BOLD signal change,red light (660 nm) 0.12 lux,1.24%
